In all, about 310,000 compounds went through this assay and about 2,200 (0.71%) showed an effect of 50% or more. Effects have a minus sign here. Some of the results follow.

In this experiment the target is human ether-à-go-go-related gene (hERG) potassium channel (human, UniProt Q12809). As to the kind of experiment: primary screen, population patch clamp on CHO cells stably expressing hERG.
human ether-à-go-go-related gene (hERG) potassium channel, sequence (Q12809 whole entry, looked up): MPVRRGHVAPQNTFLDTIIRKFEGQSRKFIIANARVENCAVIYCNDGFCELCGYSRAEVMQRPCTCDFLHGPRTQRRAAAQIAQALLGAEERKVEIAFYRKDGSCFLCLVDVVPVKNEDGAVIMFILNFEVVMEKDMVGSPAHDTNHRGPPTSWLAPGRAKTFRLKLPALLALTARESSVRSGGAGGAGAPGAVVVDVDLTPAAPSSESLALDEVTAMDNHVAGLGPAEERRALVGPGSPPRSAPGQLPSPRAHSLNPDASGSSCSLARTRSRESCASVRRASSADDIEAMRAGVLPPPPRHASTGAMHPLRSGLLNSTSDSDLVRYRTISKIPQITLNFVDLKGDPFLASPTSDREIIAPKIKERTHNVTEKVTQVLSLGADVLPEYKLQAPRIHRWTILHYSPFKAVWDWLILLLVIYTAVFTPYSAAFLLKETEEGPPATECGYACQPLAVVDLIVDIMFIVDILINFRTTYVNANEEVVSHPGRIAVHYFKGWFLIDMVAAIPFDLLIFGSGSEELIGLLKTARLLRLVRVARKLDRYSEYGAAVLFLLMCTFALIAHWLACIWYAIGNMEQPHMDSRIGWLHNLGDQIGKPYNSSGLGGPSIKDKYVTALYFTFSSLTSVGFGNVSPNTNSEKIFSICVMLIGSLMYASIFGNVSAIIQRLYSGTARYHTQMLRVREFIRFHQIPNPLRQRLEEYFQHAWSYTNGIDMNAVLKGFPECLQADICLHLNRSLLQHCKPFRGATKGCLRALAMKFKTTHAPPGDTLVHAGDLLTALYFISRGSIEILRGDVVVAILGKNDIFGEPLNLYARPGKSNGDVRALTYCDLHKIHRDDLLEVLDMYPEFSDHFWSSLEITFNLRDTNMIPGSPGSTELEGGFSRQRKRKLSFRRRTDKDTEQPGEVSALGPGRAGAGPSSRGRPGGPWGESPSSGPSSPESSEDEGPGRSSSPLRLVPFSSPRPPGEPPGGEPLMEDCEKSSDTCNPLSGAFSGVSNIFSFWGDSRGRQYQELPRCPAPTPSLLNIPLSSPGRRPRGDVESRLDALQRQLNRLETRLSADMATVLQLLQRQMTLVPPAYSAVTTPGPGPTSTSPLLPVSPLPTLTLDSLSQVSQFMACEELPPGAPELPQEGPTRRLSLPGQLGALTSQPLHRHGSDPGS
In the case of `Cc1cccc(Oc2cc(NC(=O)c3ccccc3)cc([N+](=O)[O-])c2)c1`, the “hERG current change (%, negative = inhibition) at 1uM” value was 16.7%.

Turning to `Cc1ccc(S(=O)(=O)N2CCOCC2)cc1C(=O)Nc1cccc(S(=O)(=O)N2CCCC2)c1`, the “hERG current change (%, negative = inhibition) at 1uM” value is 10.3%.

In the case of `C[C@@H]1[C@@H](Sc2ccccc2)CC(=O)O[C@@H]1c1ccc(-c2ccccc2)cc1`, the “hERG current change (%, negative = inhibition) at 1uM” value is 4.82%.

On to `Cc1ccc(S(=O)(=O)N(Cc2n[nH]c(=S)n2-c2ccccc2)c2ccccc2)cc1`, for which the “hERG current change (%, negative = inhibition) at 1uM” value was determined as 14.1%.

As to `COc1ccc(NC(=O)NN(C(=O)c2ccccc2)C(C)(C)C)cc1`, the “hERG current change (%, negative = inhibition) at 1uM” value is given as 3.54%.

Consider `COc1ccc(NS(=O)(=O)c2cccc(C(=O)NCCCN3CCCC3=O)c2)cc1`, for which the “hERG current change (%, negative = inhibition) at 1uM” value is reported as 24%.

Turning to `O=S(=O)(c1ccccc1)N1CCN=C1SCc1ccccc1`, the “hERG current change (%, negative = inhibition) at 1uM” value was 9.96%.

Regarding `O=C(CCCCn1c(=O)c2ccccc2n(CC(=O)NC2CCCC2)c1=O)NCc1ccco1`, the “hERG current change (%, negative = inhibition) at 1uM” value is reported as -3.02%.

On to `O=C(Nc1ccnn1C1CCN(Cc2cccc(OCCO)c2)CC1)C1CCCC1`, for which the “hERG current change (%, negative = inhibition) at 1uM” value is given as -2.81%.

Turning to `O=C(Nc1ccc(F)cc1F)c1ccc2nc(N3CCOCC3)sc2c1`, the “hERG current change (%, negative = inhibition) at 1uM” value was 12.2%.

Consider `COc1cc(NC(=O)c2cccnc2)c(OC)cc1NC(=O)c1ccc(Br)cc1`, for which the “hERG current change (%, negative = inhibition) at 1uM” value was determined as 20%.

As for `O=C(CN(c1ccccc1)S(=O)(=O)c1ccc(F)cc1)NC1CCS(=O)(=O)C1` (centres unmarked), the “hERG current change (%, negative = inhibition) at 1uM” value worked out at 9.8%.

In the case of `CCOCCCNC(=S)N1C2CCC1CC(NC(=O)Nc1ccc(C(=O)OCC)cc1)C2` (centres unmarked), the “hERG current change (%, negative = inhibition) at 1uM” value turned out to be 11.6%.

Consider `COc1ccc(-c2coc3cc(OC)cc(OC)c3c2=O)cc1`, for which the “hERG current change (%, negative = inhibition) at 1uM” value was 16.9%.

`CC(=O)N1CCN(c2ccc(NC(=O)c3cccc([N+](=O)[O-])c3)cc2)CC1`: the “hERG current change (%, negative = inhibition) at 1uM” value is recorded as 14.6%.

Regarding `CCC(CC)NC(=O)c1ccccc1Oc1ccccc1`, the “hERG current change (%, negative = inhibition) at 1uM” value is reported as 1.49%.

With `CCOC(=O)C1=C(C)OC(N)=C(C(=O)OCC)C1c1cccnc1` (centres unmarked), the “hERG current change (%, negative = inhibition) at 1uM” value amounted to 6.31%.

In the case of `O=C(Cc1cccc(C(F)(F)F)c1)Nc1ccccc1`, the “hERG current change (%, negative = inhibition) at 1uM” value is 5.63%.

Regarding `CCSc1nnc(NC(=O)c2ccc3c(c2)OCO3)s1`, the “hERG current change (%, negative = inhibition) at 1uM” value is -2.52%.

As to `CCc1ccccc1N1CSC2=C(C#N)C(c3cc(OC)c(OC)cc3OC)CC(=O)N2C1` (centres unmarked), the “hERG current change (%, negative = inhibition) at 1uM” value is on record as -4.38%.

Turning to `O=C(COc1ccc(Cl)cc1Cl)NN1C(=O)/C(=C\c2ccc(Cl)cc2)SC1=S`, the “hERG current change (%, negative = inhibition) at 1uM” value is recorded as 8.23%.

With `Cc1nnc(SCC(=O)N2CCc3ccccc32)s1`, the “hERG current change (%, negative = inhibition) at 1uM” value was found to be 10.1%.

As to `CC(=O)NCC(=O)NC1CC(C)(C)Cc2c1cnn2-c1ccccc1` (centres unmarked), the “hERG current change (%, negative = inhibition) at 1uM” value is on record as 13.1%.

Consider `Fc1ccc(-c2nnc(-c3ccc(Cl)cc3)o2)cc1`, for which the “hERG current change (%, negative = inhibition) at 1uM” value is 10.8%.

Take `CCN(CC)S(=O)(=O)c1ccc(N2CC(C(=O)NCCc3ccc(Cl)cc3)CC2=O)cc1` (centres unmarked): the “hERG current change (%, negative = inhibition) at 1uM” value came out at 4.52%.

For `O=Cc1cccn1-c1cccnc1`, the “hERG current change (%, negative = inhibition) at 1uM” value worked out at 0.633%.

On to `Cc1cc(C)cc(N(C(=O)c2snc(C(N)=O)c2N)C(C(=O)NCC2CCCO2)c2ccc(C)o2)c1` (centres unmarked), for which the “hERG current change (%, negative = inhibition) at 1uM” value is reported as 9.26%.

As for `Cc1cc(=O)oc2cc(OC(C)C(=O)NCC3CCCO3)ccc12` (centres unmarked), the “hERG current change (%, negative = inhibition) at 1uM” value was determined as 16.6%.

Take `CCCCOC(=O)C(C#N)c1nc2ccccc2nc1N1CCOCC1` (centres unmarked): the “hERG current change (%, negative = inhibition) at 1uM” value is -5.34%.

As to `COc1nonc1NCn1nc(C)cc1C`, the “hERG current change (%, negative = inhibition) at 1uM” value came out at 11.5%.

As for `Cc1nn(C)cc1C(=O)Nc1cc(Oc2ccc(Cl)cc2)cc([N+](=O)[O-])c1`, the “hERG current change (%, negative = inhibition) at 1uM” value was -7.06%.

On to `CNC(=O)c1[nH]cnc1C(=O)N[C@@H](CC(C)C)C(=O)OC(C)(C)C`, for which the “hERG current change (%, negative = inhibition) at 1uM” value was 9.84%.

With `N/C(=N\OC(=O)CCCOc1ccccc1)c1ccncc1`, the “hERG current change (%, negative = inhibition) at 1uM” value came out at 9.35%.

Turning to `CN(C(=O)C1CCN(S(=O)(=O)c2cccs2)CC1)C1CCCCC1`, the “hERG current change (%, negative = inhibition) at 1uM” value stood at 3.01%.

Turning to `O=C(c1cc2cc(Br)ccc2o1)N1CCOCC1`, the “hERG current change (%, negative = inhibition) at 1uM” value is listed as 6.86%.

Consider `CCn1c(=O)c2sccc2n2c(CCCC(=O)NCc3cccnc3)nnc12`, for which the “hERG current change (%, negative = inhibition) at 1uM” value came to 7.95%.

Turning to `Cc1ccc2[nH]c3c(c2c1)CN(C(=O)CN1C[C@H]2C[C@@H](C1)c1cccc(=O)n1C2)CC3`, the “hERG current change (%, negative = inhibition) at 1uM” value came out at 3.06%.

With `N#C/C(=N\Nc1ccccc1)C(N)=S`, the “hERG current change (%, negative = inhibition) at 1uM” value was found to be 5.33%.

For the compound `Cc1ccc(NC(C(N)=O)c2c(C)[nH]c(=O)[nH]c2=O)cc1` (centres unmarked), the “hERG current change (%, negative = inhibition) at 1uM” value is 9.83%.

Consider `CCC(=O)N1N=C(c2c(-c3ccccc3)c3cc(Cl)ccc3[nH]c2=O)CC1c1ccco1` (centres unmarked), for which the “hERG current change (%, negative = inhibition) at 1uM” value amounted to 0.55%.

Regarding `C/C(=N\NC(=O)C(c1ccccc1)c1ccccc1)c1ccccn1`, the “hERG current change (%, negative = inhibition) at 1uM” value is 2.64%.

Regarding `Cc1cccc(/C=N\Nc2nnc(-c3ccccc3)c(=O)[nH]2)c1`, the “hERG current change (%, negative = inhibition) at 1uM” value is given as -0.0933%.

Take `COC(=O)C1C2CCC(C2)C1C(=O)OCC(=O)c1ccc(C)cc1` (centres unmarked): the “hERG current change (%, negative = inhibition) at 1uM” value is recorded as -8.81%.

Regarding `COC(=O)c1cc(OC(=O)c2ccc(=O)[nH]c2)cc(C(=O)OC)c1`, the “hERG current change (%, negative = inhibition) at 1uM” value is recorded as 6.38%.

For `COc1ccc(NC(=O)c2csc3c2CCCC3)cc1`, the “hERG current change (%, negative = inhibition) at 1uM” value came out at 6.07%.

In the case of `CN(C[C@@H](CC1CCCCC1)N(C[C@H](Cc1ccccc1)N(CCc1ccccc1)N=O)N=O)N=O.[Na+]`, the “hERG current change (%, negative = inhibition) at 1uM” value came to 13.8%.

Take `CCOc1ccccc1NC(=O)CSc1nc(=O)n(Cc2ccccn2)c2c1CCC2`: the “hERG current change (%, negative = inhibition) at 1uM” value is given as -15.2%.

As for `Cc1ccccc1S(=O)Cc1ccc(C(=O)N2CCN(C(=O)c3ccco3)CC2)o1` (centres unmarked), the “hERG current change (%, negative = inhibition) at 1uM” value is 21%.

Take `O=C(N1CCN(c2ccccc2F)CC1)C12CC3CC(CC(C3)C1)C2`: the “hERG current change (%, negative = inhibition) at 1uM” value stood at 2.92%.

On to `CC1=NN(c2ccccc2)C(=O)C1/C=C1\C(=O)NC(=O)N(c2ccc(C)c(C)c2)C1=O` (centres unmarked), for which the “hERG current change (%, negative = inhibition) at 1uM” value worked out at 4.17%.

Turning to `Cc1onc(-c2ccccc2Cl)c1C(=O)Nc1sc2c(c1C#N)CCC2`, the “hERG current change (%, negative = inhibition) at 1uM” value was 1.71%.

For the compound `O=C(Nc1nc2ccc(S(=O)(=O)N3CCCC3)cc2s1)c1ccccn1`, the “hERG current change (%, negative = inhibition) at 1uM” value is recorded as -1.87%.

As for `CCC(C)NC(=O)c1cc2c(=O)n(CC)c3ccccc3c2s1` (centres unmarked), the “hERG current change (%, negative = inhibition) at 1uM” value was 9.93%.

Take `Cc1onc(-c2ccccc2)c1C(=O)N1CCCCCC1`: the “hERG current change (%, negative = inhibition) at 1uM” value was found to be 15.5%.

Turning to `COc1ccc(C(=S)N2CCCC2)cc1C`, the “hERG current change (%, negative = inhibition) at 1uM” value came out at 3.2%.

On to `Cc1ccc(S(=O)(=O)NNC(=O)c2cc3cc4ccccc4nc3s2)cc1`, for which the “hERG current change (%, negative = inhibition) at 1uM” value was 5.43%.

The values are drawn from article PMC4336329 (PLoS ONE, 2015).
